Drawing on paper PMC10723142, this text covers binding for five substances.

These are yes or no findings as the source states them, for the method shown. In cells and extracts the contact can be indirect. Some binding calls cover weakened binding; strength is not graded here. Sequences can lack the tags named with a protein.

The assay has as its target T1, His6-tagged full-length FleN (Fle^HisN^FL) (P. aeruginosa) (UniProt G3XD64).
T1 sequence: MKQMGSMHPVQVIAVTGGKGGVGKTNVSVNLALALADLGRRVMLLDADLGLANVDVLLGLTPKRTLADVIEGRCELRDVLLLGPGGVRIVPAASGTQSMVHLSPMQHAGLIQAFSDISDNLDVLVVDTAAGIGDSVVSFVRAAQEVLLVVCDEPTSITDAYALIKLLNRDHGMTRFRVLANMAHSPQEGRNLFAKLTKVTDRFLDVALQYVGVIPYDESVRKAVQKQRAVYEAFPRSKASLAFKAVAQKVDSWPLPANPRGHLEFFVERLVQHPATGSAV
Put plainly: pull-down; coexpression in E. coli; His6-tagged bait held on Talon IMAC resin, untagged partner as prey; 20 mM HEPES pH 8.0, 120 mM NaCl, 19 mM imidazole; no nucleotide cofactors; wash over 40 column volumes; elution 200 mM imidazole; SDS-PAGE, Coomassie.

For “FleQ receiver domain (FleQ^REC) (from UniProt G3XCV0 1-139) (domain or fragment)”, the binding entry is recorded as “no binding”.
For the substance “FleQ variant missing the last 13 amino acids (FleQ^FL*) (from UniProt G3XCV0 1-477) (domain or fragment)”, the binding entry is listed as “binds”.
Under “FleQ AAA+-HTH tandem (FleQ^AAA+-HTH) (from UniProt G3XCV0 138-490) (domain or fragment)” stands “no binding”.
Under “FleQ receiver and ATPase domain tandem (FleQ^REC-AAA+) (from UniProt G3XCV0 1-394) (domain or fragment)” stands “binds”; under “isolated FleQ ATPase domain (FleQ^AAA+) (from UniProt G3XCV0 138-394) (domain or fragment)”, “no binding”.
